Reference: the supplement of paper PMC8728848
This is one part of the list.

What was measured:
Assay in all cases: glycan array binding signal (z-score within array); higher = stronger binding
Settings in all cases: glycan notation: IUPAC condensed, linker removed
[1] = target: Man(a1-3)[Man(a1-6)]Man(a1-6)[Man(a1-3)]Man
In short: (§1)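 Glycan array data came from 3228 arrays in the Consortium for Functional Glycomics database, and only arrays with an available protein sequence were kept. Glycan names were put into IUPAC-condensed notation, and columns mapping to the same glycan were averaged. The binding signal is a within-array Z-score, averaged across arrays of one protein sequence run at different concentrations or buffers and across linkers. A negative Z-score can be read as non-binding.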

[2] = target: Man(a1-3)[Man(a1-6)]Man(a1-6)[Man(a1-3)]Man(b1-4)GlcNAc(b1-4)GlcNAc
In short: as §1

[3] = target: Man(a1-3)[Man(a1-6)]Man(b1-4)GlcNAc(b1-4)GlcNAc
In short: as §1

[4] = target: Man(a1-3)[Man(a1-6)]Man(b1-4)GlcNAc(b1-4)[Fuc(a1-6)]GlcNAc
In short: as §1

Man(a1-6)Man = target: Man(a1-6)Man
In short: as §1

Man(b1-4)GlcNAc = target: Man(b1-4)GlcNAc
In short: as §1

MurNAc(b1-4)GlcNAc = target: MurNAc(b1-4)GlcNAc
In short: as §1

Neu5Ac(a2-3)Gal = target: Neu5Ac(a2-3)Gal
In short: as §1

[5] = target: Neu5Ac(a2-3)Gal(b1-3)GalNAc
In short: as §1

[6] = target: Neu5Ac(a2-3)Gal(b1-3)GalNAc(b1-3)Gal(a1-4)Gal(b1-4)Glc
In short: as §1

[7] = target: Neu5Ac(a2-3)Gal(b1-3)GalNAc(b1-4)[Neu5Ac(a2-3)]Gal(b1-4)Glc
In short: as §1

[8] = target: Neu5Ac(a2-3)Gal(b1-3)GalNAc(b1-4)[Neu5Ac(a2-8)Neu5Ac(a2-3)]Gal(b1-4)Glc
In short: as §1

[9] = target: Neu5Ac(a2-3)Gal(b1-3)GalNAc6S
In short: as §1

[10] = target: Neu5Ac(a2-3)Gal(b1-3)GlcNAc
In short: as §1

[11] = target: Neu5Ac(a2-3)Gal(b1-3)GlcNAc(b1-2)Man
In short: as §1

[12] = target: Neu5Ac(a2-3)Gal(b1-3)GlcNAc(b1-2)Man(a1-3)[GlcNAc(b1-4)][Neu5Ac(a2-3)Gal(b1-3)GlcNAc(b1-2)Man(a1-6)]Man(b1-4)GlcNAc(b1-4)GlcNAc
In short: as §1

[13] = target: Neu5Ac(a2-3)Gal(b1-3)GlcNAc(b1-2)Man(a1-3)[Neu5Ac(a2-3)Gal(b1-3)GlcNAc(b1-2)Man(a1-6)]Man(b1-4)GlcNAc(b1-4)GlcNAc
In short: as §1

[14] = target: Neu5Ac(a2-3)Gal(b1-3)GlcNAc(b1-3)Gal(b1-3)GlcNAc
In short: as §1

[15] = target: Neu5Ac(a2-3)Gal(b1-3)GlcNAc(b1-3)Gal(b1-4)GlcNAc
In short: as §1

[16] = target: Neu5Ac(a2-3)Gal(b1-3)GlcNAc(b1-3)GalNAc
In short: as §1

[17] = target: Neu5Ac(a2-3)Gal(b1-3)GlcNAc(b1-4)Gal(b1-4)Glc
In short: as §1

[18] = target: Neu5Ac(a2-3)Gal(b1-3)GlcNAc(b1-6)GalNAc
In short: as §1

[19] = target: Neu5Ac(a2-3)Gal(b1-3)GlcNAc6S
In short: as §1

[20] = target: Neu5Ac(a2-3)Gal(b1-3)[Fuc(a1-4)]GlcNAc
In short: as §1

[21] = target: Neu5Ac(a2-3)Gal(b1-3)[Fuc(a1-4)]GlcNAc(b1-3)Gal(b1-3)[Fuc(a1-4)]GlcNAc
In short: as §1

[22] = target: Neu5Ac(a2-3)Gal(b1-3)[Fuc(a1-4)]GlcNAc(b1-3)Gal(b1-4)[Fuc(a1-3)]GlcNAc
In short: as §1

[23] = target: Neu5Ac(a2-3)Gal(b1-3)[GlcNAc(b1-6)]GalNAc
In short: as §1

[24] = target: Neu5Ac(a2-3)Gal(b1-3)[Neu5Ac(a2-6)]GalNAc
In short: as §1

[25] = target: Neu5Ac(a2-3)Gal(b1-3)[Neu5Ac(a2-6)]GlcNAc(b1-3)[Fuc(a1-3)[Gal(b1-4)]GlcNAc(b1-6)]Gal(b1-4)Glc
In short: as §1

[26] = target: Neu5Ac(a2-3)Gal(b1-3)]Neu5Ac(a2-3)Gal(b1-4)]GlcNAc
In short: as §1

Neu5Ac(a2-3)Gal(b1-4)Glc = target: Neu5Ac(a2-3)Gal(b1-4)Glc
In short: as §1

[27] = target: Neu5Ac(a2-3)Gal(b1-4)GlcNAc
In short: as §1

[28] = target: Neu5Ac(a2-3)Gal(b1-4)GlcNAc(b1-2)Man
In short: as §1

[29] = target: Neu5Ac(a2-3)Gal(b1-4)GlcNAc(b1-2)Man(a1-3)[GlcNAc(b1-4)][Neu5Ac(a2-3)Gal(b1-4)GlcNAc(b1-2)Man(a1-6)]Man(b1-4)GlcNAc(b1-4)GlcNAc
In short: as §1

[30] = target: Neu5Ac(a2-3)Gal(b1-4)GlcNAc(b1-2)Man(a1-3)[Neu5Ac(a2-3)Gal(b1-4)GlcNAc(b1-2)Man(a1-6)]Man(b1-4)GlcNAc(b1-4)GlcNAc
In short: as §1

[31] = target: Neu5Ac(a2-3)Gal(b1-4)GlcNAc(b1-2)Man(a1-3)[Neu5Ac(a2-3)Gal(b1-4)GlcNAc(b1-2)Man(a1-6)]Man(b1-4)GlcNAc(b1-4)[Fuc(a1-6)]GlcNAc
In short: as §1

[32] = target: Neu5Ac(a2-3)Gal(b1-4)GlcNAc(b1-2)Man(a1-3)[Neu5Ac(a2-6)Gal(b1-4)GlcNAc(b1-2)Man(a1-6)]Man(b1-4)GlcNAc(b1-4)GlcNAc
In short: as §1

[33] = target: Neu5Ac(a2-3)Gal(b1-4)GlcNAc(b1-2)[Neu5Ac(a2-3)Gal(b1-4)GlcNAc(b1-4)]Man(a1-3)[GlcNAc(b1-4)][Neu5Ac(a2-3)Gal(b1-4)GlcNAc(b1-2)[Neu5Ac(a2-3)Gal(b1-4)GlcNAc(b1-6)]Man(a1-6)]Man(b1-4)GlcNAc(b1-4)GlcNAc
In short: as §1

B1: PX14343H-pdi-506-26-506 (Parabacteroides distasonis) (protein)
chain: QPTGTMTTDSKLTSKESALALTNSAYLKNTVFNKMTPGWGCNTILLLEYMTGKATSENSQSNYKDFQDLLVSDRSLYIEDWWQDCYAGIANCNLALQKLGEFENLDASLVNGYMAEVKFMRALYYFYLVRIFGDVPKITTVQSELGELQVSRAPVKEIYDEIIIPDLLEAEQSDLAFSDHTGRVSMGAVKALLADVYLTYAGYPLQGGKSYYAESAKRSLEVIKSNEYTLFTDYESLRLPSQNNKGEFIYQVQFSLNKRHNESVRIFLPSRSGISAYDLEYGSLIPTKEFVESFEKGDKRTEEKQYFFTNYKGHPSKFSPGAAELEFMDLNGYYIYKFFDQVAVDNTAKSDLNWSVYRYTDVLLMYAEAQVNADGTPNQQSIDIVNQIRGRAGLAPFKQTNASAFLEEVWDQRYFDLCYENKMWFDMLRTRKIRDDKSGEYVDFIGYKTNWGKVYTETQLLFPIPLSERQANPNLTQNQGY
In the case of B1, the “glycan array binding signal (z-score)” value [1] is reported as -0.188, the “glycan array binding signal (z-score)” value [2] is reported as -0.113 and the “glycan array binding signal (z-score)” value [3] is reported as -0.378. The “glycan array binding signal (z-score)” value [4] was -0.351, the “glycan array binding signal (z-score)” value (Man(a1-6)Man) was -0.119 and the “glycan array binding signal (z-score)” value (Man(b1-4)GlcNAc) was -0.406. The “glycan array binding signal (z-score)” value (MurNAc(b1-4)GlcNAc) was -0.163, the “glycan array binding signal (z-score)” value (Neu5Ac(a2-3)Gal) was -0.52 and the “glycan array binding signal (z-score)” value [5] was -0.258. The “glycan array binding signal (z-score)” value [6] was -0.14, the “glycan array binding signal (z-score)” value [7] was -0.258 and the “glycan array binding signal (z-score)” value [8] was -0.215. For the same binder, the “glycan array binding signal (z-score)” value [9] was -0.294, the “glycan array binding signal (z-score)” value [10] was -0.338 and the “glycan array binding signal (z-score)” value [11] was -0.297. For the same binder, the “glycan array binding signal (z-score)” value [12] was -0.391, the “glycan array binding signal (z-score)” value [13] was -0.308 and the “glycan array binding signal (z-score)” value [14] was -0.485. For the same binder, the “glycan array binding signal (z-score)” value [15] was -0.464, the “glycan array binding signal (z-score)” value [16] was -0.443 and the “glycan array binding signal (z-score)” value [17] was -0.388. The “glycan array binding signal (z-score)” value [18] was -0.427, the “glycan array binding signal (z-score)” value [19] was -0.488 and the “glycan array binding signal (z-score)” value [20] was -0.497. For the same binder, the “glycan array binding signal (z-score)” value [21] was -0.363, the “glycan array binding signal (z-score)” value [22] was -0.239 and the “glycan array binding signal (z-score)” value [23] was -0.522. The “glycan array binding signal (z-score)” value [24] was -0.336, the “glycan array binding signal (z-score)” value [25] was -0.271 and the “glycan array binding signal (z-score)” value [26] was -0.417. For the same binder, the “glycan array binding signal (z-score)” value (Neu5Ac(a2-3)Gal(b1-4)Glc) was -0.335, the “glycan array binding signal (z-score)” value [27] was -0.441 and the “glycan array binding signal (z-score)” value [28] was -0.428. For the same binder, the “glycan array binding signal (z-score)” value [29] was -0.339, the “glycan array binding signal (z-score)” value [30] was -0.227 and the “glycan array binding signal (z-score)” value [31] was -0.237. For the same binder, the “glycan array binding signal (z-score)” value [32] was 4.89 and the “glycan array binding signal (z-score)” value [33] was -0.326.
